Where “and” joins values, the source holds several entries; their conditions need not be identical. Equal entries are not always repeated. Inconclusive results, whose numbers are uncertain, are shown with a selection of clear calls. For some of these results: Where the call is inconclusive, the potency comes from a doubtful curve fit. Calls of active or inactive are those of the source. Unless noted, calls follow the shape of the full dose curve.
Tests used:
[1] = p53 small molecule agonists, cell-based qHTS assay (AID 1963582; active = well fitted activation curve with a large enough effect in the signal ratio in the repeat runs, not every such curve was filed as active; inconclusive = weak or mixed curves; the % refers to the signal ratio; also: potency is read from the fitted curve at half-maximal effect); conditions: HCT-116 p53RE-bla reporter, beta-lactamase FRET ratio, 16 h; activation: at 66 µM (top of the series) unless noted
How it was run: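 p53RE-bla beta-lactamase reporter cells rested 5 h at 37 C/5% CO2, then received compounds in DMSO by pin transfer and were incubated 16 h at 37 C. LiveBLAzer B/G FRET substrate was loaded for 2 h at room temperature before fluorescence reading.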

[2] = cAMP Responsive Elements (CRE) small molecule antagonists, cell-based qHTS assay (AID 1963591; active = well fitted inhibition curve with a large enough effect in the signal ratio in the repeat runs, not every such curve was filed as active; inconclusive = weak or mixed curves, or effect the other way; the % refers to the signal ratio; also: potency is read from the fitted curve at half-maximal effect); conditions: CRE-bla HEK293T, beta-lactamase FRET ratio; activity change, negative = inhibition: at 92.4 µM (top of the series) unless noted
How it was run: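 CRE-bla HEK293T cells were plated 18 h at 37 °C/5% CO2, pinned with compound in DMSO, then stimulated with NKH477 at 0.25 uM final for 3 h. LiveBLAzer B/G FRET substrate was added and plates incubated 2 h at room temperature.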

[3] = target: Beta-2 adrenergic receptor (Homo sapiens) (UniProt P07550); assay: Adrenergic beta2 receptor (ADRB2) small molecule agonists, cell-based qHTS assay (AID 1963593); conditions: CHO-ADRB2 cells, cAMP HTRF, 30 min; also: potency is read from the fitted curve at half-maximal effect;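 as to activation: CHO cells stably overexpressing human ADRB2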
How it was run: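 CHO cells stably over-expressing ADRB2 were plated overnight at 37C, then dosed with compounds plus a stimulation mix containing 100uM IBMX and 25uM Ro-20-1724 for 0.5hr at room temperature. cAMP was measured by HTRF competition, 1hr.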

[4] = target: D(2) dopamine receptor (Homo sapiens) (UniProt P14416); assay: Dopamine D2 receptor (DRD2) small molecule agonists, cell-based qHTS assay (AID 1963594); conditions: HEK293-DRD2 cAMP HTRF, agonist mode, 30 min; activation: at 92.4 µM (top of the series) unless noted; also: nearly all actives have a fitted effect of over 35% in size; also: potency is read from the fitted curve at half-maximal effect
How it was run: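 HEK293 cells stably expressing DRD2 were cultured 24 h at 37 C, then given Ro20-1724 (0.1 mM final) and compounds for 10 min at room temperature. NKH477 (200nM) was then added for 30 min. cAMP was read by HTRF.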

[5] = target: Beta-2 adrenergic receptor (Homo sapiens) (UniProt P07550); assay: Adrenergic beta2 receptor (ADRB2) small molecule antagonists, cell-based qHTS assay (AID 1963592); conditions: CHO-ADRB2 cells, isoproterenol-stimulated cAMP HTRF ratio, 0.5 h; activity change, negative = inhibition: at 92.4 µM (top of the series) unless noted; also: nearly all actives have a fitted effect of over 50% in size
How it was run: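 Cells (CHO, stable ADRB2 overexpression) incubated 18-20hr at 37C; compounds added from DMSO; agonist mix (1nM isoproterenol, 100uM IBMX, 25uM Ro-20-1724) added; 0.5hr RT; d2-cAMP and anti-cAMP-cryptate added; 1hr RT; 665/615 nm read.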

[6] = target: D(2) dopamine receptor (Homo sapiens) (UniProt P14416); assay: Dopamine D2 receptor (DRD2) small molecule antagonists, cell-based qHTS assay (AID 1963595; active = well fitted inhibition curve with a large enough effect in the signal ratio in the repeat runs, with a control signal flat; inconclusive = weak or mixed curves, or effect the other way; the % refers to the signal ratio); conditions: HEK293-DRD2 cAMP HTRF antagonist mode; activity change, negative = inhibition: at 92.4 µM (top of the series) unless noted
How it was run: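 HEK293 cells stably expressing DRD2 were preincubated with 0.1 mM Ro20-1724, then with compound for 10 min at room temperature. Cells were stimulated with 200 nM NKH477 plus 12 nM quinpirole for 30 min, and cAMP was read by HTRF.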

[7] = activation: at 92.4 µM (top of the series) unless noted
% is scaled to controls: 0 for no effect and ±100 for the full control effect; tags tell the direction and shape of the fitted curve or compound fluorescence and quenching.

UniProt P07550, sequence (P07550 whole entry, looked up): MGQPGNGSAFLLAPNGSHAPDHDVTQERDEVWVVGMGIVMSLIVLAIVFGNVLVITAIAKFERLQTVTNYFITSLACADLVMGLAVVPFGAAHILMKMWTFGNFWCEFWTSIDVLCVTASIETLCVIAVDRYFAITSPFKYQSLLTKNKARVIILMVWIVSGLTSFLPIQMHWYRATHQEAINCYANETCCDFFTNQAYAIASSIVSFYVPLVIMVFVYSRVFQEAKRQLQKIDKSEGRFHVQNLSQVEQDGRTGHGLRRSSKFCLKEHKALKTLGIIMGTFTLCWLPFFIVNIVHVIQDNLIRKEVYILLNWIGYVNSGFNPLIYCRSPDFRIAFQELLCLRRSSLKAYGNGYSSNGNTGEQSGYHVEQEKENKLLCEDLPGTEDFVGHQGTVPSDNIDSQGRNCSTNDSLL
UniProt P14416, sequence (P14416 whole entry, looked up): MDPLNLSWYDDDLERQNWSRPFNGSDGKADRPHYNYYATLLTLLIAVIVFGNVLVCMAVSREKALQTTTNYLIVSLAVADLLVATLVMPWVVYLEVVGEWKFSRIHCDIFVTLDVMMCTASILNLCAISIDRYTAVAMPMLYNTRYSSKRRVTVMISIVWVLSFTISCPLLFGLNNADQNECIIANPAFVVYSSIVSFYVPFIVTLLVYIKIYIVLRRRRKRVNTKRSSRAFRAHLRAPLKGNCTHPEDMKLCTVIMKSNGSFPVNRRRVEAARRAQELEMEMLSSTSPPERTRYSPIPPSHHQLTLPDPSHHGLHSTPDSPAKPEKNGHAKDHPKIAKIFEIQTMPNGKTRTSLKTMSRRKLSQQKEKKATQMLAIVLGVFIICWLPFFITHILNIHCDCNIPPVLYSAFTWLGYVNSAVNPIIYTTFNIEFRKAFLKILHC

COc1cc(/C=C/C(N)=O)cc(OC)c1OC
Potency [1]: inactive
Potency [2]: inactive
Potency [3, 7]: inconclusive: 16.8 µM [activator, single point]
Potency [4]: inactive

COc1cc(-c2ccc(N=C=O)c(OC)c2)ccc1N=C=O
Potency [1]: inactive
Potency [2]: inactive
Potency [3, 7]: inconclusive: 5.92 µM [inhibitor, full curve]

CC1=CP(=O)(c2ccccc2)CC1 (stereo not given)
Potency [1]: inactive
activity change, negative = inhibition [5]: inconclusive: -0.174%
Potency [3, 7]: inactive

CCOC(=O)/C=C/C(=O)O
Potency [1]: inconclusive: 40.8 µM [rising, partial curve]
Potency [2]: inactive
Potency [3, 7]: inactive

OCC(O)c1ccccc1 (stereo not given)
Potency [1]: inactive
Potency [2]: inactive
activation [3, 7]: inconclusive: 1.54%

CCc1cccc(O)c1
Potency [1]: inactive
activity change, negative = inhibition [2]: inconclusive: -8.56%
activation [3, 7]: inconclusive: 3.87%
activation ([3]; at 92.4 µM (top of the series)): inactive: -14.1%
Potency [4]: inconclusive: 0.0785 µM [rising, full curve, poor fit]

CC(C)=CCC/C(C)=C/CC/C(C)=C/CO
Potency [1]: inconclusive: 20.4 µM [rising, partial curve, poor fit]
activity change, negative = inhibition [2]: inconclusive: 19.9%
activation [3, 7]: inconclusive: 3.18%

CCc1ccc(CCOc2ccc(CC3SC(=O)NC3=O)cc2)nc1 (stereo not given)
Potency [1]: inconclusive: 11.2 µM [rising, partial curve]
Potency [2]: inconclusive: 27.3 µM [fluorescent, partial curve, poor fit] and inconclusive: 18.8 µM [fluorescent, partial curve, poor fit]
activation [3, 7]: inconclusive: -14.9%

Oc1cccc(O)c1O
Potency [1]: inactive
Potency [5]: inactive
activation [3, 7]: inconclusive: -73.4%

CC(N)CCCC(C)(C)O (stereo not given)
Potency [1]: inactive
Potency [2]: inactive
Potency [3, 7]: inconclusive: 0.531 µM [inhibitor, full curve, poor fit]

CCCS(=O)c1ccc2nc(NC(=O)OC)[nH]c2c1 (stereo not given)
Potency [1]: inconclusive: 15.8 µM [activator]
activity change, negative = inhibition [2]: inconclusive: -26.4% [at 42.4 µM]
activation [4]: inconclusive: 23.2% [at 42.5 µM]
Potency [6]: inactive

CC(COC(C)(C)C)OCCCO (stereo not given)
Potency [1]: inactive
activity change, negative = inhibition [2]: inconclusive: 14.7%
activation [3, 7]: inconclusive: -31.6%

CN1C(C)(C)CCCC1(C)C
Potency [1]: inactive
Potency [2]: inactive
activation [3, 7]: inconclusive: -0.377% [at 42.5 µM]
activation [4]: inconclusive: -12.9% [at 42.5 µM]
Potency [6]: inactive

C=CCS(=O)(=O)O
Potency [1]: inactive
Potency [2]: inactive
Potency [3, 7]: inactive

CCOC(=O)CS
activation [1]: inconclusive: 14.2%
Potency [2]: inactive
Potency [3, 7]: inconclusive: 17.7 µM [activator, full curve, poor fit]

COc1ccc2c(c1)c(CC(=O)O)c(C)n2C(=O)c1ccc(Cl)cc1
Potency [1]: inconclusive: 8.19 µM [rising, partial curve] and inconclusive: 20.4 µM [rising, partial curve] and inconclusive: 12.6 µM [rising, partial curve]
Potency [2]: inconclusive: 8.69 µM [fluorescent, partial curve] and inconclusive: 30.6 µM [fluorescent, partial curve] and inconclusive: 10.6 µM [fluorescent]
Potency [3, 7]: inconclusive: 275 nM [inhibitor, full curve, poor fit] and inconclusive: 969 nM [inhibitor, single point]
activation [3, 7]: inconclusive: 5.05% [at 42.5 µM]
activity change, negative = inhibition [6]: inconclusive: 5.56% [at 42.5 µM]

CC(=O)OC(C)c1ccccc1 (stereo not given)
Potency [1]: inconclusive: 0.0458 µM [falling, single point]
activity change, negative = inhibition [2]: inconclusive: -5.78%
activation [3, 7]: inconclusive: -24.7%

Cc1ccccc1OCC(O)CO (stereo not given)
Potency [1]: inactive
Potency [3, 7]: inactive

Cc1nc2ccccc2s1
Potency [1]: inactive
Potency [3, 7]: inactive

CCCCCCCCCCCCCCCCCCOCCO
Potency [1]: inconclusive: 0.0008 µM [rising, full curve, poor fit]
activation [3, 7]: inconclusive: 20.3% [at 19 µM]

Cc1ccc(S(=O)(=O)NC(=O)NC2CCCC2)cc1
Potency [1]: inactive
Potency [3, 7]: inactive

CC(C)(C)OC(=O)c1ccccc1C(=O)O
Potency [1]: inactive
activation [3, 7]: inconclusive: 9.37%

Clc1ccc2c(c1)Nc1ccccc1S2
Potency [1]: inactive
Potency [3, 7]: inconclusive: 29.8 µM [inhibitor, partial curve]

CC(CC=O)CC(C)(C)C (stereo not given)
Potency [1]: inactive
Potency [3, 7]: inactive

CCn1cc(C(=O)O)c(=O)c2cnc(N3CCCC3)nc21
activation [1]: inactive: 1.25% [at 5.99 µM]
activation [3, 7]: inconclusive: -28.8% [at 8.39 µM]

CSc1ccc(Cl)cc1
Potency [1]: inconclusive: 18.1 µM [falling, single point]
Potency [3, 7]: inconclusive: 0.611 µM [inhibitor, partial curve, poor fit]

C1CCOC1
Potency [1]: inactive
activation [3, 7]: inconclusive: -29%

Nc1ccc(S(=O)(=O)Nc2ccc(Cl)nn2)cc1
Potency [1]: inactive
Potency [3, 7]: inactive

OCCC(O)CO (stereo not given)
Potency [1]: inactive
Potency [3, 7]: inconclusive: 15.4 µM [inhibitor, partial curve, poor fit]

CC(C)(C)c1cc(CCC(=O)NN)cc(C(C)(C)C)c1O
Potency [1]: inconclusive: 45.8 µM [rising, single point]
activation [3, 7]: inconclusive: 39.2%

Reference: PubChem BioAssay (Tox21)
